Changes are numbered by the printed parent chain. In names and notes the source's numbering stands.
Key:
[1] = test system: human monocyte-derived DC (MoDC); test: MoDC activation, flow cytometry of surface activation markers (t-SNE)
Cynomolgus CD40-Fc = test: SPR kinetic measurements (single cycle kinetics) on captured IgG2, cCD40-Fc; conditions: Cynomolgus CD40-Fc (dimer, avidity effects may contribute)
[2] = test system: human monocyte-derived DC (MoDC); test: MoDC activation, IL-12p40 ELISA; format: cell-based; conditions: for IL-12 production: Example 12, 1:2 serial dilutions from 200 nM; for IL-12 production (agonistic potential): Example 13, 100-12.5 nM, 48 hours
human moDCs = test: Dendritic cell microscopy (clustering); format: cell-based; conditions: 200 nM and 1.6 nM
Human CD40-Fc = Human CD40-Fc (Homo sapiens, UniProt P25942); test: SPR kinetic measurements (single cycle kinetics) on captured IgG2, hCD40-Fc
Canine CD40-Fc = molecular target: T1, Canine CD40-Fc (Canis lupus familiaris, UniProt Q7YRL5); test: SPR single cycle kinetics of Example 5, canine CD40-Fc; format: binding; conditions: in words
T1 construct: purchased Sino Biological 70105-D02H
T1 sequence (Q7YRL5 21-193 limits assumed): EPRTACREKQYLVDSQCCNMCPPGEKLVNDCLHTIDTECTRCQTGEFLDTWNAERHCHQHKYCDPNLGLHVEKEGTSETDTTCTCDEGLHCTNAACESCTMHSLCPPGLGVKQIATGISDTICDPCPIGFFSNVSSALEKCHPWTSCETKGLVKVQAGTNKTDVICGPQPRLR

[3] = test system: human monocyte-derived dendritic cells; test: Internalisation of antibody into dendritic cells; conditions: 125 nM antibody
Human CD40-avi = Human CD40-avi (Homo sapiens, UniProt P25942); test: SPR kinetic measurements (single cycle kinetics) on captured IgG2, hCD40-avi; conditions: 1:1 Langmuir binding model
[4] = Human CD40-Fc (dimer, avidity effects may contribute)

Chain of Human CD40-Fc (P25942 21-193): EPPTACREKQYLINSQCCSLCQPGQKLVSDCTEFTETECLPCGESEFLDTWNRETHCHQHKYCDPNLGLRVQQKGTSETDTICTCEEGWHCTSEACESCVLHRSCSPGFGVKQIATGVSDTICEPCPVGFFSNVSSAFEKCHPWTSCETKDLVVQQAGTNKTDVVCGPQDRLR
Chain of Human CD40-avi (P25942 21-193): as above

B1: Y-SM083-A9: agonistic human anti-CD40 IgG2 monoclonal antibody; light chain SEQ ID NO: 9, heavy chain SEQ ID NO: 10 (antibody)
heavy: EVQLLESGGGLVQPGGSLRLSCAASGFTFSSYAMSWVRQAPGKGLEWVSGISGYSGSTYYADSVKGRFTISRDNSKNTLYLQMNSLRAEDTAVYYCARYYSYYGYYYFDYWGQGTLVTVSSASTKGPSVFPLAPCSRSTSESTAALGCLVKDYFPEPVTVSWNSGALTSGVHTFPAVLQSSGLYSLSSVVTVPSSNFGTQTYTCNVDHKPSNTKVDKTVERKCCVECPPCPAPPVAGPSVFLFPPKPKDTLMISRTPEVTCVVVDVSHEDPEVQFNWYVDGVEVHNAKTKPREEQFNSTFRVVSVLTVVHQDWLNGKEYKCKVSNKGLPAPIEKTISKTKGQPREPQVYTLPPSREEMTKNQVSLTCLVKGFYPSDIAVEWESNGQPENNYKTTPPMLDSDGSFFLYSKLTVDKSRWQQGNVFSCSVMHEALHNHYTQKSLSLSPGK
light: DIQMTQSPSSLSASVGDRVTITCRASQSISSYLNWYQQKPGKAPKLLIYAASSLQSGVPSRFSGSGSGTDFTLTISSLQPEDFATYYCQQGYPYPFTFGQGTKLEIKRTVAAPSVFIFPPSDEQLKSGTASVVCLLNNFYPREAKVQWKVDNALQSGNSQESVTEQDSKDSTYSLSSTLTLSKADYEKHKVYACEVTHQGLSSPVTKSFNRGEC
modifications: Heavy chain; Light chain
- agonistic profile, t-SNE cluster of surface expression of CD14, CD1a, CD40, HLA-DR, CD86 and CD83 ([1]; 125 nM antibody, 48 hours of stimulation): potent agonistic potential
- expression of dendritic cell surface activation markers HLA-DR, CD83 and CD86 ([1]; Example 12, 200 nM): induced expression of the dendritic cell surface activation markers
- ka (Cynomolgus CD40-Fc): 500000 M⁻¹ s⁻¹
- kd (Cynomolgus CD40-Fc): 0.0022 s⁻¹
- agonistic activity by IL-12 ELISA ([2]; Example 7, 1:2 serial dilutions from 500 nM, 48 h): highest agonistic activity of the new antibodies
- IL-12 production ([2]; 48 h): induced substantial cytokine release
- IL-12 production (agonistic potential) [2]: dose-dependent agonistic potential
- % agonistic activity of A9 at 25 nM ([2]; IL-12 production after 48 h, relative to A9 (SP9)): 100 (reference) %
- dendritic cell clustering (activation) (human moDCs): induced significant clustering
- ka (Human CD40-Fc; [4]): 310000 M⁻¹ s⁻¹
- kd (Human CD40-Fc; [4]): 0.0016 s⁻¹
- Kd (Human CD40-Fc; read-out: affinity constant for human CD40, as stated in the description): ~5 nM
- binding to canine CD40 (Canine CD40-Fc): only Ab-5 (CP-870,893) binds canine CD40
- internalisation ([3]; after 60 min at 37° C.): 50%
- antibodies remained extracellular ([3]; after 4 h incubation): Approximately 30%
- ka (Human CD40-avi): 170000 M⁻¹ s⁻¹
- kd (Human CD40-avi): 0.0061 s⁻¹

B2: X-SM083-bi-23: bispecific: Y-SM083-A9 IgG2, FITC8 scFv at CH3, (G4S)2 linker (antibody)
heavy: EVQLLESGGGLVQPGGSLRLSCAASGFTFSSYAMSWVRQAPGKGLEWVSGISGYSGSTYYADSVKGRFTISRDNSKNTLYLQMNSLRAEDTAVYYCARYYSYYGYYYFDYWGQGTLVTVSSASTKGPSVFPLAPCSRSTSESTAALGCLVKDYFPEPVTVSWNSGALTSGVHTFPAVLQSSGLYSLSSVVTVPSSNFGTQTYTCNVDHKPSNTKVDKTVERKCCVECPPCPAPPVAGPSVFLFPPKPKDTLMISRTPEVTCVVVDVSHEDPEVQFNWYVDGVEVHNAKTKPREEQFNSTFRVVSVLTVVHQDWLNGKEYKCKVSNKGLPAPIEKTISKTKGQPREPQVYTLPPSREEMTKNQVSLTCLVKGFYPSDIAVEWESNGQPENNYKTTPPMLDSDGSFFLYSKLTVDKSRWQQGNVFSCSVMHEALHNHYTQKSLSLSPGKGGGGSGGGGSEVQLLESGGGLVQPGGSLRLSCAASGFTFSNYWMSWVRQAPGKGLEWVSGISGNGGYTYFADSVKDRFTISRDNSKNTLYLQMNSLRAEDTAVYYCAGGDGSGWSFWGQGTLVTVSSGGGGSGGGGSGGGGSGGGGSQSVLTQPPSASGTPGQRVTISCTGSSSNIGAGYDVHWYQQLPGTAPKLLIYGNNNRPSGVPDRFSGSKSGTSASLAISGLRSEDEADYYCAAWDDSLSGRVFGGGTKLTVL
light: B1 light
- expression of dendritic cell surface activation markers HLA-DR, CD83 and CD86 ([1]; Example 12, 200 nM): retained most of the agonistic activity of A9
- IL-12 production ([2]; 48 h): induced the highest levels of IL-12 among the bispecific antibodies derived from the A9 clone
- IL-12 production (agonistic potential) [2]: retained their respective agonistic potential in a dose-dependent manner

B3: X-SM083-bi-33: bispecific: Y-SM083-A9 IgG2 C127S, FITC8 scFv at CL, (G4S)2 linker (antibody)
heavy: B1 heavy with C135S
light: DIQMTQSPSSLSASVGDRVTITCRASQSISSYLNWYQQKPGKAPKLLIYAASSLQSGVPSRFSGSGSGTDFTLTISSLQPEDFATYYCQQGYPYPFTFGQGTKLEIKRTVAAPSVFIFPPSDEQLKSGTASVVCLLNNFYPREAKVQWKVDNALQSGNSQESVTEQDSKDSTYSLSSTLTLSKADYEKHKVYACEVTHQGLSSPVTKSFNRGECGGGGSGGGGSEVQLLESGGGLVQPGGSLRLSCAASGFTFSNYWMSWVRQAPGKGLEWVSGISGNGGYTYFADSVKDRFTISRDNSKNTLYLQMNSLRAEDTAVYYCAGGDGSGWSFWGQGTLVTVSSGGGGSGGGGSGGGGSGGGGSQSVLTQPPSASGTPGQRVTISCTGSSSNIGAGYDVHWYQQLPGTAPKLLIYGNNNRPSGVPDRFSGSKSGTSASLAISGLRSEDEADYYCAAWDDSLSGRVFGGGTKLTVL
- IL-12 production (agonistic potential) [2]: retained their respective agonistic potential in a dose-dependent manner

B4: X-SM083-bi-26: bispecific: Y-SM083-B8 IgG2, FITC8 scFv at CH3, (G4S)2 linker (antibody)
heavy: [letters of about 100 residues omitted]YVWGIDYWGQGTLVTVSSASTKGPSVFPLAPCSRSTSESTAALGCLVKDYFPEPVTVSWNSGALTSGVHTFPAVLQSSGLYSLSSVVTVPSSNFGTQTYTCNVDHKPSNTKVDKTVERKCCVECPPCPAPPVAGPSVFLFPPKPKDTLMISRTPEVTCVVVDVSHEDPEVQFNWYVDGVEVHNAKTKPREEQFNSTFRVVSVLTVVHQDWLNGKEYKCKVSNKGLPAPIEKTISKTKGQPREPQVYTLPPSREEMTKNQVSLTCLVKGFYPSDIAVEWESNGQPENNYKTTPPMLDSDGSFFLYSKLTVDKSRWQQGNVFSCSVMHEALHNHYTQKSLSLSPGKGGGGSGGGGSEVQLLESGGGLVQPGGSLRLSCAASGFTFSNYWMSWVRQAPGKGLEWVSGISGNGGYTYFADSVKDRFTISRDNSKNTLYLQMNSLRAEDTAVYYCAGGDGSGWSFWGQGTLVTVSSGGGGSGGGGSGGGGSGGGGSQSVLTQPPSASGTPGQRVTISCTGSSSNIGAGYDVHWYQQLPGTAPKLLIYGNNNRPSGVPDRFSGSKSGTSASLAISGLRSEDEADYYCAAWDDSLSGRVFGGGTKLTVL
light: DIQMTQSPSSLSASVGDRVTITCRASQSISSYLNWYQQKPGKAPKLLIYAASSLQSGVPSRFSGSGSGTDFTLTISSLQPEDFATYYCQQGYGYPPFTFGQGTKLEIKRTVAAPSVFIFPPSDEQLKSGTASVVCLLNNFYPREAKVQWKVDNALQSGNSQESVTEQDSKDSTYSLSSTLTLSKADYEKHKVYACEVTHQGLSSPVTKSFNRGEC
- CD83 and CD86 expression ([1]; Example 12, 200 nM): undetectable or almost undetectable levels of CD83 and CD86 expression
- HLA-DR expression ([1]; Example 12, 200 nM): minimal level of HLA-DR expression
- IL-12 production ([2]; 48 h): did not induce a detectable level of IL-12 production at any antibody concentration
- dendritic cell clustering (activation) (human moDCs): induced almost no clustering

— patent US12630643B2, “CD40 binding protein, bispecific conjugate thereof and method of treating cancer” (priority 2020, dated 2026)
